Source: the supplement of paper PMC8728848
The list shows a part of the results.

What was measured:
Experiment in all cases: glycan array binding signal (z-score within array); higher = stronger binding
Conditions in all cases: glycan notation: IUPAC condensed, linker removed
[1] = target: Neu5Ac(a2-6)Gal(b1-4)GlcNAc(b1-3)Gal(b1-4)GlcNAc(b1-3)Gal(b1-4)GlcNAc(b1-2)Man(a1-3)[Neu5Ac(a2-6)Gal(b1-4)GlcNAc(b1-3)Gal(b1-4)GlcNAc(b1-3)Gal(b1-4)GlcNAc(b1-2)Man(a1-6)]GalNAc
Procedure, shortened: (§1)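 Glycan array data came from 3228 arrays in the Consortium for Functional Glycomics database, and only arrays with an available protein sequence were kept. Glycan names were put into IUPAC-condensed notation, and columns mapping to the same glycan were averaged. The binding signal is a within-array Z-score, averaged across arrays of one protein sequence run at different concentrations or buffers and across linkers. A negative Z-score can be read as non-binding.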

[2] = target: Neu5Ac(a2-6)Gal(b1-4)GlcNAc(b1-3)Gal(b1-4)GlcNAc(b1-3)GalNAc
Procedure, shortened: as §1

[3] = target: Neu5Ac(a2-6)Gal(b1-4)GlcNAc(b1-3)Gal(b1-4)GlcNAc(b1-3)[Neu5Ac(a2-6)Gal(b1-4)GlcNAc(b1-3)Gal(b1-4)GlcNAc(b1-6)]GalNAc
Procedure, shortened: as §1

[4] = target: Neu5Ac(a2-6)Gal(b1-4)GlcNAc(b1-3)Gal(b1-4)GlcNAc(b1-6)[Gal(b1-3)]GalNAc
Procedure, shortened: as §1

[5] = target: Neu5Ac(a2-6)Gal(b1-4)GlcNAc(b1-3)Gal(b1-4)[Fuc(a1-3)]GlcNAc(b1-3)Gal(b1-4)[Fuc(a1-3)]GlcNAc
Procedure, shortened: as §1

[6] = target: Neu5Ac(a2-6)Gal(b1-4)GlcNAc(b1-3)GalNAc
Procedure, shortened: as §1

[7] = target: Neu5Ac(a2-6)Gal(b1-4)GlcNAc(b1-3)[Neu5Ac(a2-6)Gal(b1-4)GlcNAc(b1-6)]GalNAc
Procedure, shortened: as §1

[8] = target: Neu5Ac(a2-6)Gal(b1-4)GlcNAc(b1-6)GalNAc
Procedure, shortened: as §1

[9] = target: Neu5Ac(a2-6)Gal(b1-4)GlcNAc(b1-6)[Gal(b1-3)GlcNAc(b1-3)]Gal(b1-4)Glc
Procedure, shortened: as §1

[10] = target: Neu5Ac(a2-6)Gal(b1-4)GlcNAc(b1-6)[Gal(b1-3)]GalNAc
Procedure, shortened: as §1

[11] = target: Neu5Ac(a2-6)Gal(b1-4)GlcNAc6S
Procedure, shortened: as §1

Neu5Ac(a2-6)GalNAc = target: Neu5Ac(a2-6)GalNAc
Procedure, shortened: as §1

[12] = target: Neu5Ac(a2-6)GalNAc(b1-4)GlcNAc
Procedure, shortened: as §1

[13] = target: Neu5Ac(a2-6)GalNAc(b1-4)GlcNAc6S
Procedure, shortened: as §1

[14] = target: Neu5Ac(a2-6)GlcNAc(b1-4)GlcNAc
Procedure, shortened: as §1

[15] = target: Neu5Ac(a2-6)GlcNAc(b1-4)GlcNAc(b1-4)GlcNAc
Procedure, shortened: as §1

Neu5Ac(a2-8)Neu5Ac = target: Neu5Ac(a2-8)Neu5Ac
Procedure, shortened: as §1

[16] = target: Neu5Ac(a2-8)Neu5Ac(a2-3)Gal(b1-3)GalNAc(b1-4)[Neu5Ac(a2-3)]Gal(b1-4)Glc
Procedure, shortened: as §1

[17] = target: Neu5Ac(a2-8)Neu5Ac(a2-3)Gal(b1-3)GalNAc(b1-4)[Neu5Ac(a2-8)Neu5Ac(a2-3)]Gal(b1-4)Glc
Procedure, shortened: as §1

[18] = target: Neu5Ac(a2-8)Neu5Ac(a2-3)Gal(b1-4)Glc
Procedure, shortened: as §1

[19] = target: Neu5Ac(a2-8)Neu5Ac(a2-3)Gal(b1-4)GlcNAc
Procedure, shortened: as §1

[20] = target: Neu5Ac(a2-8)Neu5Ac(a2-3)[Gal(b1-3)GalNAc(b1-4)]Gal(b1-4)Glc
Procedure, shortened: as §1

[21] = target: Neu5Ac(a2-8)Neu5Ac(a2-3)[GalNAc(b1-4)]Gal(b1-4)Glc
Procedure, shortened: as §1

[22] = target: Neu5Ac(a2-8)Neu5Ac(a2-8)Neu5Ac
Procedure, shortened: as §1

[23] = target: Neu5Ac(a2-8)Neu5Ac(a2-8)Neu5Ac(a2-3)Gal(b1-4)Glc
Procedure, shortened: as §1

[24] = target: Neu5Ac(a2-8)Neu5Ac(a2-8)Neu5Ac(a2-3)[Gal(b1-3)GalNAc(b1-4)]Gal(b1-4)Glc
Procedure, shortened: as §1

[25] = target: Neu5Ac(a2-8)Neu5Ac(a2-8)Neu5Ac(a2-3)[GalNAc(b1-4)]Gal(b1-4)Glc
Procedure, shortened: as §1

[26] = target: Neu5Ac(a2-8)Neu5Ac(a2-8)Neu5Ac(a2-8)Neu5Ac(a2-3)[GalNAc(b1-4)]Gal(b1-4)Glc
Procedure, shortened: as §1

[27] = target: Neu5Ac(a2-8)Neu5Gc(a2-3)Gal(b1-4)GlcNAc
Procedure, shortened: as §1

[28] = target: Neu5Ac(b2-6)Gal(b1-4)GlcNAc
Procedure, shortened: as §1

Neu5Ac(b2-6)GalNAc = target: Neu5Ac(b2-6)GalNAc
Procedure, shortened: as §1

[29] = target: Neu5Ac9Ac(a2-3)Gal(b1-3)GlcNAc
Procedure, shortened: as §1

[30] = target: Neu5Ac9Ac(a2-3)Gal(b1-4)GlcNAc
Procedure, shortened: as §1

[31] = target: Neu5Ac9Ac(a2-6)Gal(b1-4)GlcNAc
Procedure, shortened: as §1

[32] = target: Neu5Gc(a2-3)Gal(b1-3)GlcNAc
Procedure, shortened: as §1

[33] = target: Neu5Gc(a2-3)Gal(b1-3)[Fuc(a1-4)]GlcNAc
Procedure, shortened: as §1

Neu5Gc(a2-3)Gal(b1-4)Glc = target: Neu5Gc(a2-3)Gal(b1-4)Glc
Procedure, shortened: as §1

[34] = target: Neu5Gc(a2-3)Gal(b1-4)GlcNAc
Procedure, shortened: as §1

[35] = target: Neu5Gc(a2-3)Gal(b1-4)GlcNAc(b1-3)Gal(b1-4)GlcNAc(b1-2)Man(a1-3)[Neu5Gc(a2-3)Gal(b1-4)GlcNAc(b1-3)Gal(b1-4)GlcNAc(b1-2)Man(a1-6)]Man(b1-4)GlcNAc(b1-4)GlcNAc
Procedure, shortened: as §1

[36] = target: Neu5Gc(a2-3)Gal(b1-4)[Fuc(a1-3)]GlcNAc
Procedure, shortened: as §1

[37] = target: Neu5Gc(a2-6)Gal(b1-4)GlcNAc
Procedure, shortened: as §1

Neu5Gc(a2-6)GalNAc = target: Neu5Gc(a2-6)GalNAc
Procedure, shortened: as §1

[38] = target: Neu5Gc(a2-8)Neu5Ac(a2-3)Gal(b1-4)GlcNAc
Procedure, shortened: as §1

[39] = target: Neu5Gc(a2-8)Neu5Gc(a2-3)Gal(b1-4)GlcNAc
Procedure, shortened: as §1

[40] = target: Neu5Gc(a2-8)Neu5Gc(a2-3)Gal(b1-4)GlcNAc(b1-3)Gal(b1-4)GlcNAc
Procedure, shortened: as §1

[41] = target: Neu5Gc(a2-8)Neu5Gc(a2-6)Gal(b1-4)GlcNAc
Procedure, shortened: as §1

[42] = target: Neu5Gc(b2-6)Gal(b1-4)GlcNAc
Procedure, shortened: as §1

B1: Epa3 (Candida glabrata), Q6VBI8_CANGB (protein)
chain: MGSSHHHHHHSSGLVPRGSHMNDLGFSLFEKRELSSQNPFGYPIGCSPQDVAIIPGLTMELYSYPIVSGTPPNCYDASYVDPEYPRTGYLKRKMVGKSTGVTGNLNYKYSVEKACMVKYGNLPAGYNYNEPLTVSNFTMILYGYFKAQTTGLHTFFVNADDLLYINFGAGNAFDCCKREDSKTKLGEYVAYDIWHVDSSKNKVSLFLEKDLYYPIRMFFNNIGKDSSLDLSFSVNGATDQISDFSGYLYSVPDQPDTCPAHIGYDTTCR
glycan array binding signal (z-score) [1]: 1.58 | glycan array binding signal (z-score) [2]: -0.1 | glycan array binding signal (z-score) [3]: 0.367 | glycan array binding signal (z-score) [4]: 0.471 | glycan array binding signal (z-score) [5]: -0.258 | glycan array binding signal (z-score) [6]: 0.109 | glycan array binding signal (z-score) [7]: -0.227 | glycan array binding signal (z-score) [8]: 0.116 | glycan array binding signal (z-score) [9]: -0.2 | glycan array binding signal (z-score) [10]: 0.501 | glycan array binding signal (z-score) [11]: -0.29 | glycan array binding signal (z-score) (Neu5Ac(a2-6)GalNAc): -0.17 | glycan array binding signal (z-score) [12]: -0.366 | glycan array binding signal (z-score) [13]: -0.236 | glycan array binding signal (z-score) [14]: -0.144 | glycan array binding signal (z-score) [15]: -0.206 | glycan array binding signal (z-score) (Neu5Ac(a2-8)Neu5Ac): -0.199 | glycan array binding signal (z-score) [16]: -0.199 | glycan array binding signal (z-score) [17]: -0.06 | glycan array binding signal (z-score) [18]: -0.393 | glycan array binding signal (z-score) [19]: -0.248 | glycan array binding signal (z-score) [20]: 2.2 | glycan array binding signal (z-score) [21]: -0.293 | glycan array binding signal (z-score) [22]: -0.342 | glycan array binding signal (z-score) [23]: -0.294 | glycan array binding signal (z-score) [24]: 0.035 | glycan array binding signal (z-score) [25]: -0.322 | glycan array binding signal (z-score) [26]: -0.225 | glycan array binding signal (z-score) [27]: -0.229 | glycan array binding signal (z-score) [28]: -0.337 | glycan array binding signal (z-score) (Neu5Ac(b2-6)GalNAc): -0.152 | glycan array binding signal (z-score) [29]: -0.211 | glycan array binding signal (z-score) [30]: -0.305 | glycan array binding signal (z-score) [31]: -0.117 | glycan array binding signal (z-score) [32]: -0.244 | glycan array binding signal (z-score) [33]: -0.15 | glycan array binding signal (z-score) (Neu5Gc(a2-3)Gal(b1-4)Glc): -0.127 | glycan array binding signal (z-score) [34]: -0.387 | glycan array binding signal (z-score) [35]: 0.132 | glycan array binding signal (z-score) [36]: -0.159 | glycan array binding signal (z-score) [37]: -0.31 | glycan array binding signal (z-score) (Neu5Gc(a2-6)GalNAc): -0.066 | glycan array binding signal (z-score) [38]: -0.369 | glycan array binding signal (z-score) [39]: -0.277 | glycan array binding signal (z-score) [40]: -0.19 | glycan array binding signal (z-score) [41]: -0.25 | glycan array binding signal (z-score) [42]: 0.151
